Experimental findings from the RNAGym collection of RNA variant scans (doi:10.7554/elife.90254) are described below.

The chains are these.
B1: OR4K15 (parent)
chain: GUUAACGGUCAUAGGCCAUGGAAACUAGGAGCACCAUUUCGCUGCCAGUGAAGAAAUGAACAAAGAAAAUCUGGGCCAGGCAGGCAUCAAAAGAAAUAGUCUUGCGCUCAACCAGAAAGUCUGUAAUCAUUUUAAGGGUA

Read counts are not given, so values of variants with three or more changes are uncertain.

The data set covers variants of B1. Description: self-cleavage, relative activity (ratio to wild type); higher = more cleavage; in vitro, sequencing; the parent is a self-cleaving ribozyme.
For GUUAACGGUCAUAGGCCCUGGAAACUAGGAGCACCAUUUCGCUGCCAGUGGAGUAAUGAACAAAGAAAAUCUGGGCCAGGCAGGCGUCAAAAGAAAUAGUCUUGCGCUCAACCAGAAAGUCUGUAAUCAUUUUAAGGGCA [A18C A51G A54U A86G U139C], the self-cleavage is 1.44.
In the case of GUUAACGGUCAUAGGCCGUGGAGACUAGGAGCACCAUUUCGCUGCCAGUGAAGAAAUGAACAAAGAAAAUCUGGGCCAGGCAGGCAUCAAAAGAAAUAGUCUUGCGCUCAACCAGAAAGUCUGUAAUCACUUUAAGGGUA [A18G A23G U130C], the self-cleavage was 0.43.
As to GUUAACGGUCAUAGGCCGUGGAAACUGGGAGCACCAUUUCGCUGCCAGUGAAGAAAUGAACAAAGAGAACCUGGGCCUGGCAGGCGUCAAAAGAAAUAGUCUUGCGCUCAACCAGAAAGUCUGUAAUCAUUUUAAGGGUA [A18G A27G A67G U70C A78U A86G], the self-cleavage was 0.2.
Turning to GUUAACGGUCAUAGGCUAUGGAAACUAGGAGCACCAUUUCGCUGCCAGUGAAGAAAUGAACAAAGAAAAUCUGGGCCAGGCAGGCACCAAAAGAAAUAGUCUUGCGCUCAACCAGAAAGUCAGUAAUCAUCUUAAGGGUA [C17U U87C U122A U131C], the self-cleavage is 0.94.
As for GUUAACGGUCAUAGGCCGUGGAGACUAGGAGCACCAUUUCGCUGCCAGUGAAGAAAUGAACAAAGAAAACCUGGGCCAGGCAGGCAUCAAAAGAAAUAGUCUUGCGCUCAACCAGAAAGUCUGUAAUCAUUUUAAGGGUA [A18G A23G U70C], the self-cleavage was 1.35.
Consider GUUAACGGUCAUAGGCCGUGGAUACUAGGUGCACCAUUUCGCUGCCUGUGAAGAAAUGAACAAAGAAAAUCUGGGCCAGGCAGGCAUCAAAAGAAAUAGUCUUGCGCUCAACCAGAAAGUCUGUAAUCAUUUUAAGGGUG [A18G A23U A30U A47U A140G], for which the self-cleavage amounted to 1.14.
For the variant GUUAACGGUCAUAGGCCCUGGAAACUAGGAGCACCAUUUCGCUGCCGGUGAAGAAAUGAACAAAGAAAAUCUGGGCCAGGCAGGCAUCAAAAGAAAUAGUCUCGCGCUCAACCAGAAAGUCUGUAAUCAUUUUAAGGGUA [A18C A47G U103C], the self-cleavage amounted to 0.41.
Regarding GUUAACGGUCAUAGGCCGUGGAUACUAGGAGCACCAUCUCGCUGCCAGUGAGGAAAUGAACAAAGAAAAUCUGGGCCAGGCAGGCAUCAAAAGAAAUAGUCUUGCGCUCAACCAGAAAGUCUGUAAUCAUUUUAAGGGUA [A18G A23U U38C A52G], the self-cleavage was 0.59.
As to GUUAACGGUCAUAGGCCGUGGAGACUAGGAGCACCAUUUCGCUGCCAGCGAAGAAAUGAACAAAGAAAAUCUGGGCCAGGCAGGCAUCAAAAGAAAUAGUCUUGCGCUCAACCAGAAAGUCUGUAAUCAUUUUAAGGGUA [A18G A23G U49C], the self-cleavage worked out at 1.25.
In the case of GUUAACGGUCAUAGGCCGUGGGAACUAGGAGCACCGUUUCGCUGCCAGUGAAGAAAUGAACAAAGAAAAUCUGGGCCAGGCAGGCAUCAAAAGAAAUAGUCUUGCGCUCAACCAGAAAGUCUGUAAUCAUUUUAAGGGCA [A18G A22G A36G U139C] it was 0.75; in that of GUUAACGGUCAUAGGCCGUGGAGACUAGGAGCACCAUUUCGCUGCCAGUGAAGAAAUGAACAAAGAAAAUCUGGGCCAGGCAGGCAUCAAAAGAAAUAGUCUUGCGCUCAACCAGAAAGUCAGUAAUCAUUUUAAGGGUA [A18G A23G U122A], 1.15; in that of GUUAACGGUCAUAGGCCCUGGAAACUAGGAGCACCAUUUCGCUGCCAGUGAAGAAAUGACCAAAGAAAAUCUGGGCCAGGCAGGCAUCAAAAGAAAUAGUCUUGCGCUCAACCAGAAAGUCUGCAAUCAUUUUAAGGGUA [A18C A60C U124C], 0.3.
In the case of GUUAACGGUCAUAGGCCGUGGAAGCUAGGAGCACCAUUUCGCUGCCAGUGAAGAAAUGAACAAAGAAAAUCUGGGCCAGGCAGGCAUCAAAAGAGAUAGUCUUGCGCUCAACCAGAAAGUCUGUAAUCAUUUUAAGGGUA [A18G A24G A95G], the self-cleavage is 0.87.
In the case of GUUAACGGUCAUAGGCCCUGGAAACUAGGAGCACCAUUUCGCUGCCAGUGAAGAAACGAACAAAGAAAAUCUGGGCCAGGCAGGCAUCAAAAGAAAUAGUCUUGCGCUCAACCAGAAAGUUUGUAAUCAUUUUAAGGGUG [A18C U57C C121U A140G] it was 2.23.
In the case of GUUAACGGUCAUAGGCCCUGGAAACUAGGAGCACCAUUUCGCUGCCAGUGAAGAAAUGAACAAAGAAAACCUGGGCCAGGCAGGCAUCAAAAGAAAUAGUCUUGCGCUCGACCAGAAAGUCUGUAAUCAUUUGAAGGGUA [A18C U70C A110G U133G] it was 0.07.
As for GUUAACGGUCAUAGGCCCUGGAAACUAGGAGCACCAUUUCGCUGCCAGUGAAGAAAUGAGCAAAGAAAAUCUGGGCCAGGCAGGCAUCAAAAGAAAUAGUCUUGCGCUCAACCAGAAAAUCUGUAAUCAUUUUAAGGGUA [A18C A60G G119A], the self-cleavage is 1.21.
As to GUUAACGGUCAUAGGCCGUGGAAGCUAGGAGCACCAUUUCGCUGCCAGUGAAGAAAUGAACAAAGAAAAUCUGGGCCAGGCAGGCAUCAAAAGAGAUAGUCUUACGCUCAACCAGAAAGCCUGUAAUCAUUUUAAGGGUA [A18G A24G A95G G104A U120C], the self-cleavage was 0.03.
Turning to GUUAACGGUCAUAGGCUAUGGAAACUAGGAGCACCAUUUCGCAGCCAGUGAAGAAAUGAACAAAGAAAGUCUGGGCCAGGCAGGCAUCAAAAGAAAUAGUCUUGCGCUCAACCAGAGAGUCUGUAAUCAUUUUAAGGGUA [C17U U43A A69G A117G], the self-cleavage amounted to 1.39.
With GUUAACGGUCAUAGGCCGUGGAACCUAGGAGCACCAUUUCGCUGCCAGUGAAGAAAUGAACAAAGAAAAUCUGGGCCAGGCUGGCAUCAAAAGAAAUAGUCUUGCGCUCAACCAGAAAGUCUGUAAUCAUUUUAUGGGUA [A18G A24C A82U A135U], the self-cleavage stood at 0.2.
In the case of GUUAACGGUCAUAGGCCGUGGAAGCUAGGAGCACCAUUUCGCUGCCAGUGGAGAAAUGAACAAAGAAAAUCUGGGCCAGGCAGGCAUCAAAAGAAAUAGUCUUGCGCUCAACCAGAAAGUCUGUAAUCAUUUUGAGGGUA [A18G A24G A51G A134G] it was 0.89.
Consider GUUAACGGUCAUAGGCCCUGGAAACUAGGAGCACCACUUCGCUGCCAGUGGAGAAAUGAACAAAGAAAAUCUGGGCCAGGCAGGCAUCAAAAGAAAUAGUCUUGCGCUCAACCAGAAAGUCUGUAAUCAUUUUAAGGGCA [A18C U37C A51G U139C], for which the self-cleavage came out at 1.03.
